From patent US20060217290A1 (published 2006)

Target: T1, human IGF-1 receptor (human, UniProt P08069 31-1367)
T1 construct: whole, on cells; Assayed as membrane preparation (P1) of transfected 293EBNA cells, not as intact cells; also called IGF-R; insulin growth factor receptor
Assay: competitive binding SPA, displacement of [125I]IGF-1 from human IGF-1R membranes

T1 sequence (P08069 31-1367): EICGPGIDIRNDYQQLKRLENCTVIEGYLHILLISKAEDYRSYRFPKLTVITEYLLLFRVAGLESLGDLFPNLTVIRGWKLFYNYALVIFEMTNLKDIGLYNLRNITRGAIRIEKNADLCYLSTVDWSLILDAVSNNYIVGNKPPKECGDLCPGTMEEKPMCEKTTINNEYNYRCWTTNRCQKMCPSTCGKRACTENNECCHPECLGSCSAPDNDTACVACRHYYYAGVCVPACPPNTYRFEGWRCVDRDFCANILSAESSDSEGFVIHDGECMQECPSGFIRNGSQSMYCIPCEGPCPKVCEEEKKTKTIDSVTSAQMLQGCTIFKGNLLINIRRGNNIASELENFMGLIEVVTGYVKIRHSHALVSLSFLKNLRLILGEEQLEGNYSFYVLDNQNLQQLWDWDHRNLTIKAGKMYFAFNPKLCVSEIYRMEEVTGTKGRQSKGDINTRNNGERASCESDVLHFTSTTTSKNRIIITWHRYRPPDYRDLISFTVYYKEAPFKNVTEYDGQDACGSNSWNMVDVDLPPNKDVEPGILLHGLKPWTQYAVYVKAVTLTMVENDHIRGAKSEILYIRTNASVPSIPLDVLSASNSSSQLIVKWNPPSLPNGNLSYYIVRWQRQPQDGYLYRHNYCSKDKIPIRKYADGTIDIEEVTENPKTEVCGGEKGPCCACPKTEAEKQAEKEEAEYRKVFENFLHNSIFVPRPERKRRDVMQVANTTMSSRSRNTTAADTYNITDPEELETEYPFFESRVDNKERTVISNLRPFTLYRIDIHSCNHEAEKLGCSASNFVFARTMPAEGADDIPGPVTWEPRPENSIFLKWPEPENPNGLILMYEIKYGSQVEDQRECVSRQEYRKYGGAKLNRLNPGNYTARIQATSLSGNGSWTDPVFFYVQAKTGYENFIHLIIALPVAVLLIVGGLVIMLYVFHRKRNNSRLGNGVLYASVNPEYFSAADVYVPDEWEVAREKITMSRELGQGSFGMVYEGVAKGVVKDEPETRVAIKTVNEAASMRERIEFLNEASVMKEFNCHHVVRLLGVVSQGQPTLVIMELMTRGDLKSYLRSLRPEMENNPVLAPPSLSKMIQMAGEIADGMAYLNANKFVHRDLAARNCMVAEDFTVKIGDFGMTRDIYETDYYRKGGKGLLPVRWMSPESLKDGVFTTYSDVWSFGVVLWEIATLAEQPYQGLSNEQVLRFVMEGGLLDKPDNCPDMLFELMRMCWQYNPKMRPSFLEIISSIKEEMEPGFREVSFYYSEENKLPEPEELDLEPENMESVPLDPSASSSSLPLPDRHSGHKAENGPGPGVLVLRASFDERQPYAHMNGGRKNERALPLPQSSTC

- Relative IGF1-R Affinity (Mean): 1.2 relative to recombinant human insulin
B1: A0^ArgA21^GlyB31^ArgB32^Arg-human insulin (ligand)
chain 1: RGIVEQCCTSICSLYQLENYCG
chain 2: not shown
notes: Insulin analog; Disulfides A7-B7, A20-B19, A6-A11; also called ArgA0, GlyA21, ArgB31, ArgB32-human insulin
